Data from PubChem BioAssay AID686971 (National Center for Advancing Translational Sciences (NCATS), 2013).
Among all 360,000 compounds or so, about 7,500 (2.1%) were called active. This list was built around the results that the source calls inconclusive (neither active nor inactive); the mix of calls is not that of the screen. Calls come from the whole dose curve; as a rule, active = well fitted cell-killing curve with a large enough effect; inconclusive = small, poorly fitted or top-dose-only effect, or effect the other way, or another doubt; inactive = no such curve, though single readings can be large or run the other way. No potency is given beside an inconclusive call; the fits are too rough.

Assay: qHTS for induction of synthetic lethality in tumor cells producing 2HG: qHTS for the HT-1080-IDH1KD cell line;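 for activity, negative = toxicity: 0% = DMSO wells and -100% = cell-free medium wells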
Conditions: HT-1080 IDH1 knockdown viability, ATP luminescence, 48 h; activity, negative = toxicity: at 46.1 µM (top of the series) unless noted
Outline: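 % activity derives from luminescence (CellTiter-Glo), normalised to DMSO and no-cell wells. HT-1080-IDH1KD cells, 750/well, had 48 h compound exposure at 37 °C.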
Potency is the fitted concentration of half-maximal effect; tags give direction and shape of the fitted curve.

**Q.** For `CC(C)(O)CC[C@H](OC(=O)c1ccccc1)[C@](C)(O)[C@H]1CC[C@@]2(O)C3=CC(=O)[C@@H]4C[C@@H](O)[C@H](O)C[C@]4(C)C3CC[C@]12C` (some centres not stated), which “activity, negative = toxicity” value is on record?
**A.** Its value is inactive: 8.42%.

**Q.** With `COc1ccc(Sc2nnc(Cc3ccccc3)c3ccccc23)cc1` as the compound, how does the Potency read?
**A.** The Potency was inconclusive [cytotoxic, single point].

**Q.** With `COc1ccc(C(CNC(=O)c2cc(S(=O)(=O)N3CCN(c4ccccc4)CC3)ccc2Cl)N(C)C)cc1` (configuration not stated) as the compound, how does the Potency read?
**A.** Its Potency is inconclusive [cytotoxic, single point].

**Q.** Which “activity, negative = toxicity” value does the source give for `CC(=NO)C1CCC2C3CCC4=CC(=NO)CCC4(C)C3C(O)CC12C` (configuration not stated) here?
**A.** Its value is inactive: -8.73%.

**Q.** With `Cn1c(NCc2cccc(Br)c2)nc2ccccc21` as the compound, how does the Potency read?
**A.** Its Potency is inconclusive [cytotoxic, single point].

**Q.** For `Cc1ccc(Nc2ncc(C(=O)NCCCN3CCN(C)CC3)c3ccccc23)cc1Cl`, which Potency is on record?
**A.** Its Potency is active: 25.9 µM.

**Q.** Which Potency does the source give for `O=C(COc1ccc(Cl)cc1)Nc1ccccc1C(=O)NCc1ccco1` here?
**A.** The Potency was inconclusive [cytotoxic, single point].

**Q.** With `CCCCCC(=O)N1C[C@@H](n2cc(-c3ccc(F)cc3)nn2)[C@H](O)C[C@@H]1c1ccc(Cl)cc1` as the compound, how does the Potency read?
**A.** The Potency was active: 16.4 µM.

**Q.** For `COc1cccc(NC(=O)COC(=O)CC2CC3CCC2C3)c1` (configuration not stated), which Potency is on record?
**A.** The Potency was inconclusive [cytotoxic, partial curve].

**Q.** With `Cc1ccc(NC(=S)NNC(=O)c2c([N+](=O)[O-])c(C)nn2C)cc1` as the compound, how does the Potency read?
**A.** The Potency was active: 5.01 µM.

**Q.** Which “activity, negative = toxicity” value does the source give for `CN(C(=O)c1cccs1)C1(C)CCS(=O)(=O)C1` (configuration not stated) here?
**A.** The value was inactive: -1.1%.

**Q.** With `CC(=O)NC1(C)CCC2CC1C(C)=NC2(C)C` (configuration not stated) as the compound, how does the “activity, negative = toxicity” value read?
**A.** Its value is inactive: 5.71%.

**Q.** With `O=C(CCN1C(=O)c2ccccc2C1=O)CN1CCOCC1` as the compound, how does the “activity, negative = toxicity” value read?
**A.** Its value is inactive: -0.908%.

**Q.** Which Potency does the source give for `O=C(NCCC1CCCCN1S(=O)(=O)c1cccs1)C(=O)Nc1ccc(F)cc1F` (configuration not stated) here?
**A.** Its Potency is active: 14.6 µM.

**Q.** For `CC(C)=CCC/C(C)=C/CNC(=O)C[C@H]1C[C@H](C(=O)N2CCOCC2)[C@@]2(C)c3[nH]c4cc(CCC(=O)N(C)C)ccc4c3CCN2C1=O`, which “activity, negative = toxicity” value is on record?
**A.** The value was inactive: -7.62%.

**Q.** Which Potency does the source give for `CC1(C)NC(=O)N(CCCCOc2ccc3c(c2)CCC3)C1=O` here?
**A.** The Potency was inconclusive [cytotoxic, single point].

**Q.** For `CCOC(=O)c1c(C)oc2c1c(C=NCCO)c(O)c1ccccc12`, which Potency is on record?
**A.** The Potency was active: 23.1 µM.

**Q.** With `CC(C)OCCCNC(=O)c1cccs1` as the compound, how does the “activity, negative = toxicity” value read?
**A.** Its value is inactive: 6.48%.

**Q.** For `COc1ccc(C(=O)/C(=C/c2cccs2)c2nc3ccccc3o2)cc1`, which Potency is on record?
**A.** The Potency was inconclusive [cytotoxic, single point].

**Q.** For `Cc1nn(C(C)C(=O)NCCCN2CCCCC2C)c(=O)c2c1sc1ccccc12` (configuration not stated), which “activity, negative = toxicity” value is on record?
**A.** Its value is inactive: -1.38%.

**Q.** For `Cc1ccc(-c2nc3ccc(NS(=O)(=O)c4ccccc4)cc3[nH]2)o1`, which Potency is on record?
**A.** The Potency was inconclusive [cytotoxic, single point].

**Q.** Which “activity, negative = toxicity” value does the source give for `Cc1ccc(-n2c(SCC(=O)N3CC(=O)Nc4ccccc43)nc3ccccc3c2=O)cc1` here?
**A.** The value was inactive: -27.2%.

**Q.** For `Cc1cccc(COC[C@H](Cc2ccccc2)N2CCN(C(=O)c3ccc(Cl)c(Cl)c3)CCC2=O)c1`, which Potency is on record?
**A.** The Potency was active: 16.4 µM.

**Q.** With `COc1cc(O)c(C(=O)CC(=O)c2ccncc2)c(OC)c1` as the compound, how does the “activity, negative = toxicity” value read?
**A.** Its value is inactive: 6.66%.

**Q.** Which Potency does the source give for `O=C(CCl)N1c2ccccc2Oc2ccc3ccccc3c21` here?
**A.** The Potency was active: 16.4 µM.

**Q.** With `O=C1NC(=S)N/C1=C/c1cccn1-c1ccc([N+](=O)[O-])cc1` as the compound, how does the Potency read?
**A.** The Potency was inconclusive [cytotoxic, single point].

**Q.** For `Cn1c(N)c(C(=O)CSc2nc3ccccc3[nH]2)c(=O)n(C)c1=O`, which “activity, negative = toxicity” value is on record?
**A.** Its value is inactive: 0.24%.

**Q.** Which “activity, negative = toxicity” value does the source give for `O=C(Cc1cccs1)N(Cc1ccco1)C1(C(=O)NC2CCCCC2)CCCCC1` here?
**A.** The value was inactive: 12.6%.

**Q.** Which Potency does the source give for `CC(=O)Nc1cccc(NC(=O)CSc2ncc(C(=O)Nc3ccccc3)c(=O)n2C)c1` here?
**A.** Its Potency is inconclusive [cytotoxic, partial curve].

**Q.** With `N#Cc1cccc(NC(=O)CSc2cccc[n+]2[O-])c1` as the compound, how does the “activity, negative = toxicity” value read?
**A.** The value was inactive: 9.74%.

**Q.** For `CN(NC(=O)c1ccccc1F)c1ncccc1[N+](=O)[O-]`, which “activity, negative = toxicity” value is on record?
**A.** Its value is inactive: -2.42%.

**Q.** For `O=C(/C=C/c1ccco1)N1CCC(Cc2ccccc2)CC1`, which “activity, negative = toxicity” value is on record?
**A.** The value was inactive: -1.09%.

**Q.** For `CCOC(=O)c1c(C)[nH]c(C)c1C(=O)COC(=O)c1cc2ccccc2cc1O`, which Potency is on record?
**A.** Its Potency is inconclusive [cytotoxic, single point].

**Q.** For `Cc1cc(C)c(NS(=O)(=O)c2ccc(NC(=O)CCC(=O)O)cc2)c(C)c1`, which Potency is on record?
**A.** The Potency was inconclusive [rising, partial curve].

**Q.** For `COc1ccc(NC(=O)CSc2ccc(-c3sc(C)nc3C)nn2)cc1`, which “activity, negative = toxicity” value is on record?
**A.** Its value is inactive: -24.4%.

**Q.** With `CCOc1ccc(CNC(=O)C(=O)c2cn(CC(=O)N3CCOCC3)c3ccccc23)cc1OC` as the compound, how does the “activity, negative = toxicity” value read?
**A.** Its value is inactive: -3.7%.

**Q.** For `Nc1ncnc2c1c(-c1ccc(Oc3ccccc3)cc1)cn2C1CCCC1`, which Potency is on record?
**A.** Its Potency is active: 20.6 µM.

**Q.** Which Potency does the source give for `CCOC(=O)C1=C[C@@H](CC)N(S(=O)(=O)c2ccc(C)cc2)[C@H]1c1cccs1` here?
**A.** Its Potency is inconclusive [cytotoxic, partial curve].

**Q.** With `COc1cc(C(=O)NCCOc2cc(C)ccc2C(C)C)cc(OC)c1OC` as the compound, how does the Potency read?
**A.** The Potency was inconclusive [cytotoxic, single point].

**Q.** For `COc1ccc(C2CC(c3ccc4ccccc4c3OC(C)=O)=NN2C(C)=O)cc1` (configuration not stated), which Potency is on record?
**A.** Its Potency is inconclusive [cytotoxic, partial curve].

**Q.** For `CC(C)c1ccc(OCC(=O)NC2CC(C)(C)NC(C)(C)C2)c(Br)c1`, which Potency is on record?
**A.** Its Potency is inconclusive [cytotoxic, partial curve].

**Q.** With `COc1ccc(C2(O)CCN(C(=O)NC3CCCCC3)CC2)cc1` as the compound, how does the “activity, negative = toxicity” value read?
**A.** Its value is inactive: -2.29%.

**Q.** Which Potency does the source give for `C[C@@]12C(=O)Nc3ccc(F)cc3C(=O)N1[C@H]1c3cc(Cl)ccc3OC[C@@H]1[C@@H]2c1ccccc1` here?
**A.** The Potency was inconclusive [cytotoxic, partial curve].

**Q.** Which Potency does the source give for `O=C(N/N=C/c1cc(Br)c(O)c(Br)c1)c1cc2c(ccc3ccccc32)o1` here?
**A.** Its Potency is inconclusive [cytotoxic, partial curve].

**Q.** With `CCc1ccc(C(=O)Nc2ccc3c(c2)n(C)c(=O)n3C)cc1` as the compound, how does the Potency read?
**A.** The Potency was inconclusive [cytotoxic, partial curve].

**Q.** Which Potency does the source give for `c1csc(-c2nc3c4ccccc4c4ccccc4c3[nH]2)c1` here?
**A.** The Potency was inconclusive [cytotoxic, partial curve].

**Q.** Which Potency does the source give for `COc1ccc(-c2cc(-c3ccccc3)nc(SC(C)C(=O)O)c2C#N)cc1` (configuration not stated) here?
**A.** The Potency was inconclusive [cytotoxic, partial curve].
